In paper PMC10726135:
This is one part of the list. At the low end of the ranking the order means little. Measured with an extract: partners may take part in the binding.

molecular target: T1, HNF4alpha8 (COS-7 nuclear extract) (UniProt P41235-5); assay: protein-binding microarray; conditions: COS-7 nuclear extract on double-stranded Agilent 4x180k PBM; binding buffer, salt, pH and temperature not given; high values mean tight binding; double strand, one strand shown; sequences stand for … in …GCCTAGGGAGATTAGAGTATCGGTCGA
T1 sequence: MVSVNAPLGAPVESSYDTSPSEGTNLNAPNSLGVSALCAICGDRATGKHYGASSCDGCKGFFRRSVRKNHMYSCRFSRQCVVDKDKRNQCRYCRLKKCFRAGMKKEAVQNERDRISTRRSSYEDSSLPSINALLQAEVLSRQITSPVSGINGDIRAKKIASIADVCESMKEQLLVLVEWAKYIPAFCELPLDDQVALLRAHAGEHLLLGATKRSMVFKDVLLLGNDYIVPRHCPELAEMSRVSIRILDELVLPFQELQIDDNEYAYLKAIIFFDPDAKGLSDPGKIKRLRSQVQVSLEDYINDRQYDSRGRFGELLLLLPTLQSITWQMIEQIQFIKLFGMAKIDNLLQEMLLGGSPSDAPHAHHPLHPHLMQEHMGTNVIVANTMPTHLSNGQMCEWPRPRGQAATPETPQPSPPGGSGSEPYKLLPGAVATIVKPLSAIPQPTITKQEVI

| Sequence | binding signal (log2 normalized intensity) |
| --- | --- |
| TAACCATGGGGGCTCAGGGCCTCTCTTCTT | -1.38 |
| CCTCTCCTCCATGGCCTGGGGCCCTACCTG | -1.32 |
| AAAAAAAGAACACAGTGTAGAAGGCAAGGG | -1.23 |
| CGATAAGGAGGAAGGACACTTAGAGATAAG | -1.35 |
| CTGGCCTCTGTGAAGTGGAGATAATAGGAG | -1.23 |
| AGAATGTGGCCATTTTACTTGTCAAGGATC | 0.43 |
| TACAGGCGTGAGCCACCGCGCCCCGCCCCC | 6.17 |
| TCATGAGTAGAGAGCAATCATGGGCCCACA | -1.37 |
| CCTTTGGGAGCAGTGGGCATATCTTTTTAT | 1.53 |
| CCTCCATGGCCTGGGGCCCTACCTGCACTT | -1.2 |
| GCATAGGAAGTGGGGAAGAAGTGTTCCCCT | 0.597 |
| TCCTTATCTGTAGAAGGCAAAGCTTGGCCA | -1.34 |
| ATTTGGAAAACATCATTCCGTGACTGAGCT | -1.29 |
| CCGAATGTCCAGACTGTGCATACCAAGAAC | -1.36 |
| ACATTCCCTTCTTAGGGCAACATTCTTATC | 1.07 |
| CCAGGGAGTGCAGCTGCAGGTGTGGGGGCG | -0.342 |
| AAGGAGCAGATGGCTAGTGACTCAGAGCAT | -1.15 |
| ATTGACATTTGGGGTCAGATAATTCTTTGC | 2.42 |
| CTTCTCCGCGGCGGGCCCTCGACCTTTGCC | 5.8 |
| TTGGAACCTGAAAGAGCAACTACTCTCTCT | -1.14 |
| CCGGCACGGTTTCGTGGGGACCCAGGCTTG | -1.34 |
| AGTGCTTTTCAATCTTATTTTTACTATGTG | 1.85 |
| CCCTTGCTTGACCCATTATGGCCACTGTGT | 1.68 |
| ACCAAGTGAACTGTGACCTGATGACAAAGG | 2.25 |
| TGACAACCAGGGCAGGGAAAGGGGGTTTGC | -1.4 |

| Sequence | binding signal (log2 normalized intensity) |
| --- | --- |
| CCCACCCCCCTGCTCCAGGCCGGCTTGCGT | 4.32 |
| AACCCTAATCCACATGCTATTATTTTCCAT | -1.19 |
| AGAGAAGCACTGCAGTTTAAGTCTGAAGGC | -1.4 |
| GGCTAGGCTGATAAGGAGGGTAACAATGCT | -1.45 |
| CTTTAAGTGTGGGGTGACTGACTTAACCCT | 2.08 |
| GCCAGGAAGCAATGGCCCTCAGCAAACCTT | -1.33 |
| GGACTTTCAGGAATGCACCCTTTTGACCAC | 3.34 |
| AGATGAGATGGTCAAAGGTTGATGGTATGT | 3.82 |
| TGTACCTCTGGTGATTACCAGTTATTACGG | 0.3 |
| CAACACCCAGGCTTATCTCACTCCAAAGGC | -1.3 |
| CTCTCCCGCCTCTTGGCCTCCCCCTTCTGA | 4.44 |
| ATCCCAATTCACTGACACAAATTATGTCAG | -1.33 |
| ATTCCACTGACTGCTTTATCAGTGTAGTTT | 0.395 |
| CCTCTGCACCCCACCAAGGACTGGACCACC | 2.79 |
| AATCTACAAATGTTTCAACATGACAGATAA | -0.275 |
| TCTTTCTCAAGCCAGACTGGTTTTTCTTGG | 1.31 |
| CTTGTAATTCAAGACTATAGACTGTGATAA | 0.981 |
| TTTGTTCACCCACCAGAGGGAACGCCCGAC | -0.267 |
| CAGCAGCGGATCCAACCTGTTCTTTTGAGC | 0.0369 |
| TATTAGGCAAAAGAGATAGCGAGAAGGCAG | -0.999 |
| CCAGTGGAGTAGGCTTTAGATAAGGTATGT | 0.622 |
| CGGTCAAGTCAGAGGCCCAGCAAGGAGAAA | -1.32 |
| AGATACAGGTCAGACCCTGGAATTCCAGAA | 0.684 |
| ATTGGGTCCACACATTCCTAGACCTTTGAC | 3.87 |
| AAAGAGCTTTTGGGCAGAGACTATGTGGTT | 0.636 |

| Sequence | binding signal (log2 normalized intensity) |
| --- | --- |
| CATGGCAGATGTCTGTGTTCACATAGGGGC | 1.45 |
| AGAGCAGTTCAGCTCTCTTTGCTCTCCTCC | -1.29 |
| GAAGTGTTTGTCAAGCTCAATGCAACCAGT | 0.124 |
| AAGTGTGGTCAAGGGTCAGTTTCTGAGAGT | 4.14 |
| TGTGGGGGCGGCAGGAGCCACAAGCCGGAG | -1.21 |
| GCAATCACGCCTCAAATGAGCTTTTGATGA | -1.34 |
| TCATGCCTTAGCTCTAGACATCGACCTTTG | 6.43 |
| CTGTAAATAAATGTCATTTAAGACGAGTGG | -0.0815 |
| GCTTTTCTCAAGTTCAGTCTTTATTGGTAC | 1.94 |
| GCTAAGTCCAAAGGTAAAAACTGGCTCTTA | 3.07 |
| CAGGAAGAACTGGTCCGCCTTCATTCCTAG | -1.34 |
| GGGAGTTAATCACAGGATTTAAAGAATTCC | -1.4 |
| TCTCCCTCTAGAGCAAAAGACAAGTTGGTT | -0.00707 |
| GGTCTAAAAGTAGCTGTTGGAATTTGGTCA | 5.25 |
| TTTGCTCACTGTAACCTTTGCCCCCCAAGT | 9.22 |
| GGAAGCGATGGGCTGGCCCTGAGCCAAGGG | -1.4 |
| TTGTAAATATAGGATCATGTTGTCTGCAAA | 0.753 |
| TCAAACATCACATTCCCCAGGCAATCTTCC | 0.765 |
| ATTTAGGGTATTTCCTAAACCAACTATAGA | -1.32 |
| TGAGTGCAAAGTCCCTAGAAGGGATCCAGC | 1.88 |
| ATAGGGCTTGAAAAGAAGAAAAAACAGGTG | -1.37 |
| GGGCTCCTTTGATCTCCGTGTTTGGAATTG | 2.2 |
| TACCTGGTTAAAAGGACAACCTTCGGCCGG | 3.04 |
| CAGAACTAGCAAGTGCCAAGATGCTAAGGC | -1.35 |
| TATCCATTTATCTCAGGTGAGCAGAGGGAG | 2.55 |

| Sequence | binding signal (log2 normalized intensity) |
| --- | --- |
| GAAAGGGTCAAAGGTTAAGCCATTGGGCAA | 6.36 |
| AGGCAAAGGCCACAGCTCAGATCACAAAAG | -1.25 |
| AGTCTTTGCCCCACTGCAAGTTGACATAAC | 2.31 |
| AACATTAGTATCACTGTGAAGACGTTAGGG | -0.174 |
| CTCGGATCCTCTGGGCTGGCTTTCATTCCA | -1.43 |
| CACTATCACCAGGATGGGCCATGACCTTTA | 4.97 |
| ATCTGACCCCTTCTTGACCTGCGTAGCCCA | 2.74 |
| GCTCCACCCAGTTCGTGCTTCTTGGCCTCT | 1.93 |
| GGTGCGACGAACGGGTAAATCCGGTTTGGG | -1.3 |
| TTTTCGAGGAGTCAAAAGGTGTATGTGGAC | 2.11 |
| TCCCTCTCACGGTAACAGCCGGAGAGGCAA | -0.906 |
| TTCTCCCAGGCCATACAGATACCCAGGCAT | -1.26 |
| TTTGTGTGTGTGTGTGTGTGTCTGTAGTTT | 3.03 |
| TCCCTGGTATGTACTTTCTTTTGGCTCTCT | 1.57 |
| TGGCCTGGCATTTGAGACTAGCCACAATAG | -1.26 |
| TCAATGTGATCAGGTGTGGGCATTAGCAGG | 0.344 |
| GACGGGAGGAAAACTGGGCAAAGGTCAGGA | 5.58 |
| TATGGATTAAATCTTGTTGGCTTGACGCTA | -1.32 |
| AGCCTGAGCCACTTCACTGGTGTGATCTTT | 3.52 |
| AGCTCAATCAAGGTTCACTGCAGCCTTGAC | 0.0732 |
| CCTCGACCTTCGGCTGGGGATGAAGGGGGC | 0.561 |
| AGCAGACACTGAAAGATGGTATGCTCTGAT | -1.26 |
| GGGCCAAGCTTAGGAATTCCAAGAAGGCAG | -1.04 |
| GGGCTTTTGTCACATTCCAGACTTTGTACA | 5.85 |
| GGCCCCTGAGCACTGTCTCAGGGTCCACAT | 3.58 |

| Sequence | binding signal (log2 normalized intensity) |
| --- | --- |
| TCTGGGAGTGCCCTTGCCGAGAGCGGCTCG | -1.33 |
| GAGCAGCACTTTTGGAGTTTGACCTGGAGC | 6.24 |
| TTTGGAATTCCCTGCAAGGACAAAGGTCAT | 7.71 |
| GCTGTTAGCTGAAGGACGTCAGAACTGTCC | -1.24 |
| TGGAATCCAAAGTATTTTCTGTCTAGGTGC | 0.637 |
| GAAAAAAAACCATTGCAAATTGGATGTTGA | 1.48 |
| TTAACAAGGACAAAGGTCAACAAACGCCCC | 5.93 |
| AAGTCTGAAGGCAGGGCTTTTCCATTGACA | -1.18 |
| AGGAGGTCAGAACTGTGGACTCGCTGCCTT | 1.39 |
| TACCAGCCAATTAGAAGGCTCCCTGCTGCG | -1.22 |
| AAACAGACCTCTCTCTCCCCAGACAGCCAC | 2.71 |
| GGTATAAAGGTCAGGGATAGAACTGGTCCT | 2 |
| TACATGAGGAGTGAGAACAGACAAAATTAA | -1.19 |
| AATCTCTGCACAGCATAGAAAACAAGTTAG | -1.12 |
| TTTTCAACATATACTTTGAACTTGTTTTTT | 2.56 |
| CCATGGTGTAATGGTTAGCACTCTGGACTC | 4.29 |
| TGTGATGAAGGCAGAAAGAAAAGGGGACCT | -1.29 |
| AAAACAAAGGAAACCAAACATTGAAATCTT | -1.33 |
| TAAGCACACTAAGGCTAAAGATTACGAACT | -1.35 |
| TTACGGTTAGGGTTAGGGTTAGGGTTAGGG | 0.777 |
| GGCCTGATGGTGAGTTCTGTCCTTTGTCCC | 4.03 |
| AGCTCTCTTTGCTCTCCTCCTAATCACTGC | -0.774 |
| CTTGTTATCTTGTCTCTTCTTGTACCTCTG | 2.1 |
| TTCCAGAGCCTTCAAAGGAAAGCAGGTGTT | -1.26 |
| ACTGTCAGCAGGGGGATCCACTTCCTATCC | -1.21 |

| Sequence | binding signal (log2 normalized intensity) |
| --- | --- |
| TCATGGAGGACTTTGGCCTTTTGTGAGATA | 5.84 |
| CATCCCTCTCTTGCTGGGCCCCCAGATTGA | 2.39 |
| TCGAGATGGCTAATCAGTATTGAGGCCGGA | -0.189 |
| AGCCTTATTCTTTGATCTCTTATCACCCTG | 1.55 |
| TCGCTCCCCTCCTGTCAGTTTATTTACTGT | 1.51 |
| CAGATGCCTGCACACGGTGTCCAGATTCCA | -0.675 |
| AGGTGTGCTGAGGAAACTGACAGGAAACTG | -1.34 |
| TCCCCCAAACCAAAGAGAAATGGTGTGGAC | 2.12 |
| CACATTCCAGGAATATTCAGATATTCCTGG | -1.27 |
| AAAAACCTCTCTCCAGGTACAAGGATAAAT | -0.486 |
| TGCAGGGAGGACAGACTCTGGGAGATAAAG | -1.26 |
| CTTATCAGGCTCATTCTAACCCAAATGCAA | 1.98 |
| ACTTCGCTGGAGGTGTTAAAGTGCCATTGA | 1.75 |
| GAGGAGACAAAGGCCGCGCCCGCCCGCGCC | -1.08 |
| GATTTAATCCTCAAAAATGCTTTACAAGGT | -1.21 |
| TGTTTAGGAGCCAATTATGCTGGCAGTAGG | -0.999 |
| CTGTTACCACACCACAGCGGGGCCTCTGTG | -1.28 |
| CTGCTTATCTCAACTGATTTACCTCTGACC | 3.03 |
| TATGGTCTCTTCCAAAGCTGAAATGCCTCA | -1.34 |
| CTGCCCTTTGCCCTTTGGGAAGGGGCAAAA | 5.21 |
